Source: publication PMC4336329 (PLoS ONE, 2015)
About 2,200 (0.71%) of roughly 310,000 compounds showed an effect of 50% or more. Effects have a minus sign here. The list shows a part of the results.

Target: human ether-à-go-go-related gene (hERG) potassium channel (human, UniProt Q12809)
Test: primary screen, population patch clamp on CHO cells stably expressing hERG

Chain of human ether-à-go-go-related gene (hERG) potassium channel (Q12809 whole entry, looked up): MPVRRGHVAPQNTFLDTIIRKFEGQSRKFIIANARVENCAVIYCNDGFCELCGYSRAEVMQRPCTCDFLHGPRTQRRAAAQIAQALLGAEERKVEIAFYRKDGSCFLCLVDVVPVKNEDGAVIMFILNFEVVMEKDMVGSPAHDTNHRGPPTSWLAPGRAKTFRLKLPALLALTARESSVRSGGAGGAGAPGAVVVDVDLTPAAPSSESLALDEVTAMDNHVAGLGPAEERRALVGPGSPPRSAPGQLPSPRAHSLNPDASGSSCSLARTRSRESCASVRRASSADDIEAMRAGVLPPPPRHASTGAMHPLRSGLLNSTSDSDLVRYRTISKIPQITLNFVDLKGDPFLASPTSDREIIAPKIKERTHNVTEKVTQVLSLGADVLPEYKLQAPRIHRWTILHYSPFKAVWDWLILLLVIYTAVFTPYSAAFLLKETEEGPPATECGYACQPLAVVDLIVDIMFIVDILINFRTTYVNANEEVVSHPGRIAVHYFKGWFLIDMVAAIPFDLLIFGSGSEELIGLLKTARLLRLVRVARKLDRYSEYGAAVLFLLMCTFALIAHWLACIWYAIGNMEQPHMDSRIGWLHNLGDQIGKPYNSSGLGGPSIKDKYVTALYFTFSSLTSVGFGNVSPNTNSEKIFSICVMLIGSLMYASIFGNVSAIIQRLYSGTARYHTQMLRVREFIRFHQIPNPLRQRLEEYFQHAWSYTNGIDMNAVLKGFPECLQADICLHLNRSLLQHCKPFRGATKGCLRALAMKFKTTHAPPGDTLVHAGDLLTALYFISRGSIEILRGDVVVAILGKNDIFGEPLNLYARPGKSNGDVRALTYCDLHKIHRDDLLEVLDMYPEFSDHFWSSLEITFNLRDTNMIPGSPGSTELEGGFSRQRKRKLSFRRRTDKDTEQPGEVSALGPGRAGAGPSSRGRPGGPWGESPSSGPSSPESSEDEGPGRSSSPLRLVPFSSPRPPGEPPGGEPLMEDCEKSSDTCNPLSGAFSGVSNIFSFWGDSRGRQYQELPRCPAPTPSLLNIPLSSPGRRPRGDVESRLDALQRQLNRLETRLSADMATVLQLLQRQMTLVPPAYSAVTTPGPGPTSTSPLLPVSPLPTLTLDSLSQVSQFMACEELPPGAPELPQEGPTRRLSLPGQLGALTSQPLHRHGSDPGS

Structure (SMILES) | hERG current change (%, negative = inhibition) at 1uM
Cc1nn(C)c(C(=O)Nc2ccc(S(=O)(=O)NC34CC5CC(CC(C5)C3)C4)cc2)c1Br | 12.2%
COc1ccc(NC(=O)CCC(=O)N/N=C/c2ccc([N+](=O)[O-])s2)cc1 | -2.67%
Cc1cccc(N/C(N)=N/c2nc(C(F)(F)F)cc(C(F)(F)F)n2)c1 | 16.1%
CCN(CC)S(=O)(=O)c1ccc(C(=O)NC2CN3CCC2CC3)cc1 (centres unmarked) | 17.1%
COC(=O)C1C2C=CC3(CN(C(C)C)C(=O)C13)O2 (centres unmarked) | 16.8%
CN(CC(=O)Nc1cccc(F)c1)CC(=O)Nc1ccccc1Oc1ccccc1.O=C(O)C(=O)O | 7.88%
Cn1c(=N)c(S(=O)(=O)c2ccccc2)cc2c(=O)n3ccccc3nc21 | 4.52%
CCc1ccccc1Nc1nc(N)nc(CSCC(=O)Nc2ccc(C)c(C)c2)n1 | -0.266%
O=S(=O)(c1ccc2nc(-c3ccccc3)[nH]c2c1)N1CCN(c2cccc(Cl)c2)CC1 | 8.43%
O=C(CCNS(=O)(=O)c1c(Cl)cccc1Cl)OCC(=O)c1ccccc1 | 10.4%
Cc1ccc(Nc2cc(C)nc(-c3ccccc3)n2)cc1 | 10.4%
O=c1c2ccccc2nc2ccc(NCc3ccco3)nn12 | -27.4%
Clc1ccccc1/C=C/c1nc(-c2cccnc2)no1 | 12.5%
COc1ccc(C(CNC(=O)c2ccccc2SC)N(C)C)cc1 (centres unmarked) | 6.99%
COc1ccc(OC2OC3COC(C)(C)OC3C(O)C2NC(C)=O)cc1 (centres unmarked) | 9.1%
COc1cc(OC)nc(NC(=O)COC(=O)C2CCCCC2)n1 | 8.48%
O=C(CCS(=O)(=O)c1ccc(Br)cc1)N1CCN(c2ccccc2Cl)CC1 | 2.11%
CCc1cc(C(=O)N2CCCC(CCC(=O)NCc3cccc(OC)c3)C2)no1 (centres unmarked) | 9.45%
CCCn1c(=N)c(C#N)cc2c(=O)n3cccc(C)c3nc21 | -20.2%
CCOC(=O)CCc1c(C)c2ccc(O)cc2oc1=O | 10.6%
COc1ccc(CC(=O)c2ccccc2C(=O)O)cc1 | 12.1%
CN(CC(=O)Nc1cccc(F)c1)C(=O)c1ccc2c(c1)OCCO2 | -0.385%

Structure (SMILES) | hERG current change (%, negative = inhibition) at 1uM
COc1ccc(N2C(=O)Cc3c2nc(N)c(C#N)c3N)cc1 | 15.7%
CCS(=O)(=O)c1ccc2oc(SCC(=O)Nc3ccc(OC)cc3OC)nc2c1 | 29.2%
CC(=C/c1ccccc1)/C=C1/SC(N2CCOCC2)=NC1=O | 10.1%
Cc1n[nH]c(=S)n1/N=C/c1ccc(OCc2ccc(Cl)cc2Cl)cc1 | 15.3%
Cc1cccc(C(=O)NCC(c2ccc(F)cc2)N2CCOCC2)c1 (centres unmarked) | 0.0425%
COc1cccc(CN(C)C(=O)Cc2c[nH]c3ccccc23)c1OC | 13.2%
CCN1C(=O)/C(=C2/C=Cc3cc(C)ccc3N2CC)N(C)C1=S | -14.1%
C=CCN1C(=O)N(c2ccc(Cl)cc2)C(=O)C1CC(=O)Nc1ccc(F)cc1 (centres unmarked) | 5.41%
Cc1ccc(S(=O)(=O)N2CCOCC2)cc1C(=O)NC(=S)N1CC(C)CC(C)C1 (centres unmarked) | 11.2%
Cc1nn(CC(=O)Nc2ccc(F)cc2)c(=O)c2ccccc12 | 8.42%
CC(C)(C)c1cc(-n2ccnc2)n2ncc(-c3ccc(Cl)cc3)c2n1 | 10.5%
CCOC(=O)C1=C(C)NC(=O)NC1c1cc2c(cc1Br)OCO2 (centres unmarked) | 12.5%
O=C(O)CCCNC(=O)CCCn1nnc2ccccc2c1=O | 6.07%
CNC(=O)c1cc(C(=O)c2ccc(Cl)cc2)c(Br)[nH]1 | 10.6%
CCOC(=O)/C(C#N)=C1/C=CN(c2ccccc2)C=N1 | 7.43%
O=C(O)c1c2c(nc3ccccc13)CCCCC2 | 18.1%
CC1(C)CC2CC(C)(CN2S(=O)(=O)c2ccc(C(=O)Nc3cccc(S(=O)(=O)N4CCOCC4)c3)cc2)C1 (centres unmarked) | 7.05%
C[C@@H](CN1C2=NC[C@H](C)N2C[C@H]1Cc1ccc(O)cc1)NC(=O)CCC1CCCCC1 | 12.7%
Cc1cccc(-c2nc(S(=O)(=O)c3ccc(F)cc3)c(NCCCN3CCOCC3)o2)c1 | 12.1%
CCOc1ccc(CN(C)C(=O)CCN2C(=O)c3ccccc3C2=O)cc1OC | 16%
CC(NC(=O)c1ccc(Br)cc1)c1ccccc1 (centres unmarked) | 7.96%
Cc1cccc(-c2noc(CN(C(=O)C34CC5CC(CC(C5)C3)C4)C(C)C)n2)c1 | 13.5%

Structure (SMILES) | hERG current change (%, negative = inhibition) at 1uM
COc1ccccc1NC(=S)NC12CN3CN(CN(C3)C1)C2 | 14.1%
Cc1cc(C)nc(NS(=O)(=O)c2ccc(NC(=O)CN3C(=O)C4CC=CCC4C3=O)cc2)n1 (centres unmarked) | 8.99%
COc1ccc(CNC(=O)CSc2nnc(C)s2)cc1 | 11%
O=C(CSc1ccccc1F)NCCCN1CCCC1=O | 9.89%
COc1cc(NC(=O)Cc2ccc(S(=O)(=O)N3CCOCC3)s2)c(OC)cc1Cl | 16.6%
NC(=O)c1nsc(C(=O)N(c2ccccc2)C(C(=O)NCC2CCCO2)c2cccs2)c1N (centres unmarked) | 3.6%
Cc1ccc(C(C)(C)C)cc1S(=O)(=O)N1CCC(C(=O)N2CCN(c3ccc(O)cc3)CC2)CC1 | 10.8%
O=C(CCl)NN1C(=O)NC(c2ccccc2)(c2ccccc2)C1=O | 14.5%
Cc1noc(C)c1CSc1nnc(-c2ccncc2)n1-c1ccc(Cl)c(Cl)c1 | -1.71%
Cc1ccc(SCC(=O)OCC(=O)Nc2ccc3[nH]c(=O)[nH]c3c2)cc1C | 12.5%
CCOC(=O)Cc1csc(NC(=O)C(C)(C)C)n1 | 11.5%
O=C(Cn1cnc2cc([N+](=O)[O-])ccc2c1=O)Nc1cccc2ccccc12 | 2.57%
O=C(NCc1ccco1)c1nnc(Cc2ccc(F)cc2)o1 | 4.3%
Cc1cccc(C)c1NC(=O)CSc1nnc(-c2ccco2)n1N | 11.5%
CCn1nc(C(=O)N2CCc3ccccc3C2)c2ccccc2c1=O | 6.42%
Cc1ccc(S(=O)(=O)N(C)C)cc1NC(=S)N(C)C1CCN(C)CC1 | 16.4%
O/N=C1/CCCSc2ccccc21 | 2.76%
CCN(CC(O)Cn1c2ccccc2c2ccccc21)S(=O)(=O)c1ccc(C)cc1 (centres unmarked) | 12.9%
C/C(=N\NC(=O)C(=O)Nc1cc(Cl)ccc1Cl)c1ccncc1 | -0.787%
C=C(C)CN1C(=O)C(O)(CC(=O)c2ccc3c(c2)OCCO3)c2ccccc21 (centres unmarked) | -5.96%
O=C(COC(=O)c1ccc(CO)cc1)NCc1cccs1 | 10.4%
Cc1ccc(C)c(NC(=O)N2CCCCCC2)c1 | 12.7%

Structure (SMILES) | hERG current change (%, negative = inhibition) at 1uM
Cn1cc(C(=O)N2CCN(C(=O)c3ccco3)CC2)c2c3ccccc3n(C)c2c1=O | 3.33%
CCCCCN(C(=O)CCC(=O)OCC(=O)Nc1cccc(CC)c1)c1c(N)n(CCCC)c(=O)[nH]c1=O | 9.04%
Cc1cc(=O)oc(C)c1C(=O)n1nc(C)c2c1C[C@@H]1[C@H]2C1(C)C | 6.09%
C=CCn1c(SCC(=O)Nc2c(C)cccc2C)nnc1-c1cnccn1 | 4.97%
CCOC(=O)N1CCC(N2C(=O)c3ccccc3C2Nc2ccc3c(c2)OCCO3)CC1 (centres unmarked) | 7.16%
COc1ccccc1NC(=O)/C=C\c1ccco1 | 3.59%
Cl.O=C(O)c1cccc(Nc2nc(-c3ccccc3)nc3ccccc23)c1 | 22.4%
CCc1nn(CC(=O)N2CCC3(CC2)OCCO3)c(=O)c2cc3ccccc3n12 | 9.77%
CCOC(=O)N1CCN(CC(=O)Nc2cc(OC)c(OC)cc2C#N)CC1 | 14.7%
CC(=C\c1ccccc1)/C=C1/SC(=S)N(CCCC(=O)O)C1=O | 17.5%
C=CCc1ccccc1OCCOc1ccc([N+](=O)[O-])cc1/C=N/NC(N)=O | 6.5%
Cc1c(C(=O)c2cccc([N+](=O)[O-])c2)c2ccccn2c1CCC#N | 8.34%
Cc1ccc(-n2c(SCC(=O)Nc3ccc4c(c3)OCO4)nnc2-c2ccoc2C)cc1 | -2.17%
COc1ccc2oc(=O)c(C(=O)Oc3ccc(NC(C)=O)cc3)cc2c1 | -0.896%
N=Nc1c(O)n(CC(=O)Nc2ccccc2)c2ccccc12 | 9.49%
CCN1C(=O)/C(=C\N2CCN(c3ccccc3)CC2)SC1=S | 10%
COc1cc(/C(C)=N/NC(=O)c2cccc(S(=O)(=O)N3CCCC3)c2)cc(OC)c1OC | 15%
C=CCN(CC=C)S(=O)(=O)c1ccc(NC(=S)NC(=O)Cc2ccc(OC)cc2)cc1 | 10.5%
COc1ccccc1NC(=O)CCNS(=O)(=O)c1ccc2c(c1)CCN2C(C)=O | 1.81%
CCc1nc2ccccc2c(C(=O)Nc2cccc(C)c2)c1C | 16.5%
